The campaign covered roughly 150,000 compounds. About 540 (0.36%) showed an effect of 50% or more. The list shows a part of the results.

The values that follow come from ChEMBL document CHEMBL4888484, “Replenishing the malaria drug discovery pipeline: Screening and hit evaluation of the MMV Hit Generation Library 1 (HGL1) against asexual blood stage Plasmodium falciparum ,using a nano luciferase reporter read-out” (2022).

The assay relates to Plasmodium falciparum. The experiment in a line: Primary screen in NF54 nanoGlo assay, in single point, at 2uM, 72h; a lower Z score goes with more inhibition. The conditions noted are these: timepoint 72 hour. It counts as functional, Erythrocyte.
On to `CCC(Cc1ccc(C)cc1)NC(=O)NCC1CCC(O)C1` (centres undefined), for which the “% Inhibition” value is recorded as 3% and the Z score was -0.47.

As to `C1CC2(C1)CC(NC1CCC13CCC3)CCO2` (centres undefined), the “% Inhibition” value stood at 10% and the Z score was -1.16.

Turning to `CCCN1CCCN(S(=O)(=O)c2cnn(C)c2C)CC1=O`, the “% Inhibition” value is reported as -5% and the Z score amounted to 0.78.

With `Cc1cccnc1CN(C)Cc1c(C)n[nH]c1C`, the “% Inhibition” value was determined as 3% and the Z score was -0.5.

With `CC(C)O[C@H]1CN(C(=O)Nc2cccnc2Oc2ccc(F)cc2)C[C@@H]1O`, the “% Inhibition” value worked out at 4% and the Z score was -0.82.

As to `C#Cc1ccc(-c2nnc(-c3ccncc3)[nH]2)nc1`, the “% Inhibition” value is on record as -4% and the Z score is reported as 0.75.

As to `CCCCCOC1CN(C(=O)Nc2nnc(C)s2)C1`, the “% Inhibition” value was -3% and the Z score is 0.34.

Regarding `COC(=O)C1CN(C(=O)CCc2cnn(C)c2)CC1c1ccccc1` (centres undefined), the “% Inhibition” value is recorded as -13% and the Z score came out at 2.28.

For `C[C@H](O)c1cc2n(n1)CCCN(C(=O)C(C)(C)Oc1ccc3c(c1)CCC3)C2`, the “% Inhibition” value is given as 6% and the Z score is listed as -0.81.

`O=C1NC(c2c(F)cccc2Cl)C(C(=O)C(F)(F)F)C(O)(c2ccccc2)N1` (centres undefined): the “% Inhibition” value was -15% and the Z score is reported as 2.04.

For `CCOC(=O)C1(CC2CC2)CCN(Cc2nccn2-c2cccc(C)c2)CC1`, the “% Inhibition” value was -15% and the Z score worked out at 1.86.

As for `COc1ccc(NC(=O)CS(=O)(=O)c2ccc3c(c2)S(=O)(=O)N=CN3)cc1Cl`, the “% Inhibition” value is reported as -1% and the Z score came to 0.13.

Turning to `CC(C)OCCCNc1ccc(C#N)c(N)n1`, the “% Inhibition” value was 17% and the Z score is -1.95.

Turning to `CCN(C(=O)Cn1cccc(S(=O)(=O)N2CCOCC2)c1=O)c1ccccc1`, the “% Inhibition” value stood at 5% and the Z score was -0.97.

On to `COCCN1C[C@H](CNC(=O)c2ccc(F)cc2F)OCC1=O`, for which the “% Inhibition” value is -16% and the Z score is given as 2.12.

As to `COc1cccc(C(=O)N[C@H](C(=O)N2CCCC2)C2CCN(C(=O)c3ccco3)CC2)c1`, the “% Inhibition” value was 11% and the Z score is -1.48.

As for `Cc1nn(C)c(C)c1CNc1ccc(N2CCOCC2)nc1`, the “% Inhibition” value is -7% and the Z score turned out to be 0.99.

As to `O=S(=O)(Nc1ccc(C2CC2)nn1)c1ccc(Cl)cc1`, the “% Inhibition” value came out at 4% and the Z score is on record as -0.78.

As to `CCCc1nc(NCCn2cnnc2)c2cnn(C)c2n1`, the “% Inhibition” value is recorded as 3% and the Z score is given as -0.32.

On to `CC(C)N(CC(=O)Nc1nccs1)C(=O)COCc1ccccc1`, for which the “% Inhibition” value is -7% and the Z score was 0.71.

Turning to `CCOc1ccc2c(C)c(-c3ncn[nH]3)oc2c1OCC`, the “% Inhibition” value is -9% and the Z score was determined as 1.28.

Turning to `CCCN(Cc1ccsc1)C(=O)c1cc(C)on1`, the “% Inhibition” value is listed as -2% and the Z score is on record as 0.31.

Turning to `CC1(C)CCC[C@@H]1NC(=O)c1ccc2c(c1)OCO2`, the “% Inhibition” value was 0% and the Z score is reported as 0.04.

Turning to `CCn1ncc(C(=O)N2C[C@H]3CN(Cc4ccccc4)C[C@@]3(CN(C)C)C2)c1C`, the “% Inhibition” value is reported as -20% and the Z score came to 2.62.

`COc1cccc(C(=O)N2[C@H](C(=O)NC(C)C)COC23CCN(C(=O)c2cccc(F)c2)CC3)c1`: the “% Inhibition” value turned out to be 4% and the Z score is on record as -0.54.

Regarding `O=C(CC1CCCO1)NCc1ccc(N2CCCCC2CCO)nc1` (centres undefined), the “% Inhibition” value is given as -7% and the Z score worked out at 1.03.

Take `O=C(O)CCN(CCc1ccccc1)c1nc(-c2cccc(Br)c2)nc2ccccc12`: the “% Inhibition” value was -14% and the Z score is on record as 2.1.

Take `CCN1CCN(C(=O)c2cccc(-c3cnn4ccccc34)c2)CC1`: the “% Inhibition” value was 2% and the Z score is -0.42.

For the compound `CCc1c(C)nn(C)c1NC(=O)NCC1(Cn2nc(C)cc2C)CC1`, the “% Inhibition” value is given as -11% and the Z score is recorded as 1.13.

Turning to `O=C(COc1ccc(F)cc1)N[C@@H]1CN(c2ccncn2)C[C@H]1CO`, the “% Inhibition” value is recorded as -15% and the Z score amounted to 2.22.

For `Cc1ccc(C(=O)N[C@@H](C)C(C)(C)C)o1`, the “% Inhibition” value is given as -12% and the Z score amounted to 1.67.

For the compound `N#Cc1ccccc1NC(=O)[C@H]1CC(=O)N(c2ccc3c4c(cccc24)CC3)C1`, the “% Inhibition” value is given as -10% and the Z score is 1.89.

Turning to `Cc1c(C(=O)NCc2cccnc2N2CCC(C(N)=O)CC2)cnn1CC(C)C`, the “% Inhibition” value is reported as -9% and the Z score is 1.23.

Turning to `CCc1ccc([C@H](C)NCc2csc(N(C)C)n2)o1`, the “% Inhibition” value is given as 5% and the Z score is -0.52.

Turning to `COc1cccc(-c2n[nH]c3c2CN(Cc2cc(C#CCO)cs2)CC3)c1`, the “% Inhibition” value was -10% and the Z score came to 0.93.

As for `CC(C)C(=O)N(Cc1cccc(OS(=O)(=O)C(C)C)c1)C(C)C`, the “% Inhibition” value was -9% and the Z score is 0.85.

Regarding `NC(=O)N1CCC[C@H]1C(=O)N(CCc1ccc(F)cc1)Cc1cccnc1`, the “% Inhibition” value is reported as -14% and the Z score is recorded as 1.34.

With `Clc1ccccc1-c1noc(C2CCC(c3ccccc3)CC2)n1` (centres undefined), the “% Inhibition” value is -11% and the Z score amounted to 1.92.

For `COc1cc2c(cc1OC)CN(C(=O)c1cn(CC(C)C)c(=O)c3ccccc13)CC2`, the “% Inhibition” value is recorded as -6% and the Z score is recorded as 0.64.

Regarding `CN(C)S(=O)(=O)N1C[C@H]2CC[C@@H](C1)N(C(=O)CCc1cnn(C)c1)C2`, the “% Inhibition” value came to 1% and the Z score is reported as -0.11.

Consider `O=C(CCc1cscn1)NC1CCC(c2ccc(F)cc2)CC1` (centres undefined), for which the “% Inhibition” value was -5% and the Z score is 0.48.

With `O=c1[nH]c(N2CCOCC2)nc(=O)c2c1ncn2CCOc1ccc(F)cc1`, the “% Inhibition” value is reported as -5% and the Z score is 0.64.
